Results taken from publication PMC6919601, “Identification of Plasmodium dipeptidyl aminopeptidase allosteric inhibitors by high throughput screening” (PLoS ONE, 2019).
Several values for one entry are separate records, joined by “and”; a condition that tells them apart may be missing. Identical values can stand only once. The campaign covered roughly 110,000 compounds. About 230 (0.21%) showed an effect of 50% or more. The list shows a part of the results.

Each molecule was assayed against DPAP1 (Plasmodium falciparum, UniProt Q8IIJ9) (assay: primary screen, percent inhibition; read by cleavage of a fluorogenic dipeptide substrate; higher = more effect of the substance).
Set-up: species or system P. falciparum D10 trophozoite lysates; single well
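Also: 30 min substrate incubation versus DMSO and 10 µM JCP410 controls.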

Chain of DPAP1 (Q8IIJ9 whole entry, looked up): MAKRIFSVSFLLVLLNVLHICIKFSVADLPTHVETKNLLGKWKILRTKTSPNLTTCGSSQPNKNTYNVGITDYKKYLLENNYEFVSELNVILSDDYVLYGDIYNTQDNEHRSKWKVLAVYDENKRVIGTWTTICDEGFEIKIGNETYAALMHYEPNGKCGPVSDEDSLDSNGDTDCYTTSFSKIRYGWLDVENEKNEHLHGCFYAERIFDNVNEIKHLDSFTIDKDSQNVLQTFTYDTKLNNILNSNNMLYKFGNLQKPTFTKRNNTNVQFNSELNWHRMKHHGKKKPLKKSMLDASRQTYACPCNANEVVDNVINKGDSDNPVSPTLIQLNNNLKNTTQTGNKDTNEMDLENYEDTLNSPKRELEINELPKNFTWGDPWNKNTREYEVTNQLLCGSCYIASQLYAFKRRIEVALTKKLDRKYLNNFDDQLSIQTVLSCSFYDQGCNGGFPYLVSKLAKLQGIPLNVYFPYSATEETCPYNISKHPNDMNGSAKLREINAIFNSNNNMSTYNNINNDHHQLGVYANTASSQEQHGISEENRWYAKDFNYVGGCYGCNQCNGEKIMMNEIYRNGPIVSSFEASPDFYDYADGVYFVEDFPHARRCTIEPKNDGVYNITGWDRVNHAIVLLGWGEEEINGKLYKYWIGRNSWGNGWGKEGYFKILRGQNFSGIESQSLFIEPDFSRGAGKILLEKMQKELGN

Structure (SMILES) | % Inhibition @ 10 uM
Cn1c(CS(=O)(=O)c2ccc(Cl)cc2)c(C#N)c2ccccc21 | 1.01%
Cn1c2c(c(=O)n(C)c1=O)C(c1ccc(C(F)(F)F)cc1)CC(=O)N2 (stereo not shown) | -2.05%
O=C(Nc1sc2c(c1C(=O)NCC1CCCO1)CCCC2)c1cc(=O)c2cc(Cl)ccc2o1 (stereo not shown) | -5.08%
O=C(O)[C@H]1CCCC[C@H]1C(=O)NCCNC(=O)[C@@H]1CCCC[C@@H]1C(=O)O | 2.75%
Cc1ccc2[nH]c3c(c2c1)CCN(C)C3 | -3.15%
CCc1ccccc1N(CC(=O)Nc1cccnc1)S(=O)(=O)c1ccc(C)cc1 | 5.66%
C=CCn1c(SCCCC)nc(O)c(CC)c1=O | -0.636%
Cn1cc(CNC(=O)Cn2nc(C(F)(F)F)cc2C2CC2)cn1 | 0.431%
CC(C)COC(=O)c1ccc2c(c1)C(=O)N(C1CCCCC1)C2=O | 0.343%
OCCN(Cc1ccccc1)Cc1ccccc1Cl | -0.603%
Cc1ccc(CCNC(=O)C2CCC(CNc3c(N4CCC(C)CC4)c(=O)c3=O)CC2)cc1 (stereo not shown) | -5.81%
O=C(COc1cccc2ccccc12)Nc1cc(Cl)c(O)c(Cl)c1 | -2.98%
Cc1cccc(NC(=O)c2ccc(F)cc2)c1C | 0.467%
CCOc1ccc(-c2cc(NC(=O)c3cc4ccc5cccnc5c4[nH]3)on2)cc1OCC | -1.61%
COCc1cc(C)nc2sc(C(=O)Nc3ccc(OC)cc3)c(N)c12 | -1.28%
O=C(Nc1ccc(S(=O)(=O)N2CCN(c3ccc(F)cc3)CC2)cc1)c1ccco1 | 0.361%
COc1cccc(-c2noc(CCCC(=O)NC(C)C)n2)c1 | 2.21%
NC(=O)C1CCN(C(=O)c2cc(-c3ccccc3Cl)on2)CC1 | -3.33%
Cc1ccc(-c2csc(N3N=C(c4ccccc4)CC3c3ccccc3)n2)cc1 (stereo not shown) | -6.18%
Cc1cc(O)nc(SCC(=O)Nc2ccc(Br)cc2)n1 | 0.777%
CCOc1ccccc1C(=O)Nc1cccc(C)c1 | -0.796%
CCCCN(CC)CCCn1cnc2c3ccccc3nc-2c1O | -0.0235%
CCC(C)NC(=O)CSc1ncccc1C(=O)OC(C)C (stereo not shown) | -1.34%
Cc1cccc2sc(NC(=O)CCNS(=O)(=O)c3cc(Br)cnc3N)nc12 | -0.0652%
CCOc1cc(/C=C2\Oc3ccc(C(=O)OC)cc3C2=O)ccc1O | -4.85%

Structure (SMILES) | % Inhibition @ 10 uM
COc1cccc(OC)c1C(=O)Nc1ccc(C)cc1 | 7.78%
COCCN1C(=O)/C(=C/c2ccc(SC)cc2)S/C1=N\c1ccccc1 | -1.64%
CCCCNC(=O)c1c(-c2ccccc2)noc1C | 4.39%
CC(=O)N[C@@H](CC1CCCCC1)C(=O)N[C@@H](C)C(=O)c1nc2ccccc2o1 | -5.43%
Cc1ccc(Nc2nc(N)nc(CN3CCCCCC3)n2)cc1 | 8.62%
COc1ccc(C(=O)Nc2ccc(F)c(F)c2)cc1OC | 4.49%
CCOCCCNC(=O)c1ccc2c(c1)c(C)c(C)n2CC | -2.12%
Nc1cc(-c2ccccc2)nc2ccccc12 | 0.162% and -2.82%
CCN(CC)c1ccc(C2Nc3ccccc3N=C3CC(C)(C)CC(O)=C32)cc1 (stereo not shown) | 3.48%
Cn1cnc2cc(NC(=O)c3cccs3)ccc21 | 0.83%
Cc1ccc(SC(C)C(=O)N2CCN(c3ccc(F)cc3)CC2)cc1 (stereo not shown) | -14.4%
C=CCn1c(S)nnc1-c1ccccc1C | -2.65%
Cc1nnc2c(N3CCc4ccccc4C3)nc3ccccc3n12 | -0.205%
O=C(NCc1cccs1)C1=CCN(S(=O)(=O)c2ccc(F)cc2)CC1 | -0.0745%
Cc1ccc(S(=O)(=O)N(CCc2ccccc2)CC(=O)N2CCOCC2)cc1 | -4.21%
O=C(N[C@@H](Cc1ccc2ccccc2c1)C(=O)N[C@@H](CCc1ccccc1)C(=O)c1nc2ccccc2o1)OCc1ccccc1 | 1.35%
CCNC(=O)NCc1nc(-c2ccc(OC)cc2)no1 | -3.49%
C=C(C)CN(CC)Cc1cc(Cl)ccc1O | 1.9%
COC(=O)c1ccc(/C=C2/C=C(c3ccc(C)cc3)OC2=O)cc1 | 1.84%
CC(C)NC(=O)Cn1ncc2c3ccccc3n(Cc3ccc(F)cc3)c2c1=O | -7.1%
COc1ccc(Cl)cc1S(=O)(=O)N1CC(=O)N(CCc2ccccc2)C(=O)C1 | 0.238%
CCOc1ccc(CN2CCC(N3CCCCC3)CC2)cc1 | -3.37%
CC(C)(C)NC(=O)c1cccc(NC(=O)c2ccc3c(c2)C(=O)N(Cc2cccnc2)C3=O)c1 | -7.96%
COc1cccc2c1cc1c(=O)n(CC(=O)NCc3cccnc3)nc(C)n12 | -5.32%
Cc1cc(-c2ccc(C)c(S(=O)(=O)NC3CCN(Cc4ccccc4)CC3)c2)on1 | -4.51%

Structure (SMILES) | % Inhibition @ 10 uM
COc1cc(C(=O)N2CCN(Cc3ccccc3F)CC2)cc(OC)c1OC | -2.32%
O=S(=O)(c1ccc(-c2cc(C(F)(F)F)no2)s1)N1CCC(c2ccccc2)C1 (stereo not shown) | 0.359%
Nc1ccccc1C(=O)NCCc1ccccc1 | -6.65%
CCCCCCNc1nc2c(c(=O)n(C)c(=O)n2C)n1Cc1cc(OC)ccc1Cl | -3.24%
O=C(NCCN1CCN(Cc2ccccc2)CC1)C1CC(=O)N(C2CCCC2)C1 (stereo not shown) | -2.99%
Clc1ccccc1CCNC1CCN(Cc2ccccc2)CC1 | 1.38%
CN(C)c1ccc(C(=O)N2CCN(c3ccc(F)cc3)CC2)cc1 | -2.22%
COc1cc(C2C3=C(CC(C)(C)CC3=O)OC3=C2C(=O)CC(C)(C)C3)c(Cl)cc1O | 13.4%
O=S(=O)(O)c1nc2ccncc2[nH]1 | 4.47%
COc1cc2c(cc1OC)CN(Cc1ccc(O)cc1)CC2 | 0.847%
O=S(=O)(CCc1ccncc1)c1ccccc1 | 1.9%
C=CC1CN2CCC1CC2[C@H](O)c1ccnc2ccc(O)cc12 (stereo partly shown) | -7.01%
COc1ccc(-c2noc(CCC(=O)NC(C)(C)C)n2)cc1OC | -1.35%
Cc1cc(C)c(C)c(OCC(=O)NCc2ccccn2)c1 | -2.98%
COc1ccccc1C(=O)N(Cc1sccc1C)C1CCS(=O)(=O)C1 (stereo not shown) | 3.77%
CC(=O)NCCNC(=O)c1ccc2ccccc2c1 | 5.01%
CCN1CCC(N(Cc2ccc(F)cc2)C(=O)NC23CC4CC(CC(C4)C2)C3)CC1 | 0.434%
CCC(=O)/N=C1\SC2CS(=O)(=O)CC2N1CCc1ccccc1 (stereo not shown) | -1.15%
O=C(c1ccccc1)N1CCCC(c2nc(O)c3nnn(Cc4ccc(Cl)cc4)c3n2)C1 (stereo not shown) | 2.73%
NC(=O)/C=C/C(=O)NCc1ccccc1 | -4.35%
Cc1c(C(=O)N(C)C)sc2c1c(=O)n(Cc1ccccc1)c(=O)n2Cc1ccc(F)cc1 | 1.91%
O=C(NCc1cccnc1)c1ccc2c(c1)C(=O)N(Cc1cccnc1)C2=O | -1.82%
COc1ccc(C(=N)NOC(=O)c2c(OC)cccc2OC)cc1 | -4.93%
Cc1ccc(C)c(Cn2c(C(C)O)nc3ccccc32)c1 (stereo not shown) | 2.92%
CC(NC(=O)Cn1ncn2c(cc3sccc32)c1=O)c1ccccc1 (stereo not shown) | 1.8%

Structure (SMILES) | % Inhibition @ 10 uM
COc1ccc(C2OC34CCCCC3C(C#N)(C#N)C2(C#N)C(=N)O4)cc1 (stereo not shown) | 0.503%
CC(=O)Nc1ccc(NC(=O)/C=C/c2cccc([N+](=O)[O-])c2)cc1 | -1.92%
CC1CCCC(C)N1CCCCn1c2ccccc2c2ccccc21 (stereo not shown) | 1.87%
CCOc1ccccc1C1C2=C(O)CC(C)(C)CC2=Nc2ncnn21 (stereo not shown) | -1.62%
CN(C)c1ccc(/C=C(\C#N)c2nc(-c3cc4c(ccc5ccccc54)oc3=O)cs2)cc1 | -10.1%
Cc1n[nH]c(C)c1CCCOc1ccccc1C(C)(C)C | -3.42%
Cc1cc(C)c(S(=O)(=O)NCC2CCC(C(=O)N3CCN(c4ccccn4)CC3)CC2)c(C)c1 (stereo not shown) | 2.35%
COc1ccc(OC)c(CCNC(=O)c2cc3oc4ccccc4c3n2C)c1 | 1.22%
SC1=NC2=C(CCC2)C(c2ccccc2)N1 (stereo not shown) | -4.75%
CN(C)C(=O)Nc1ccc(S(N)(=O)=O)cc1 | -2.12%
COCc1cc(O)n2nc(C(F)(F)F)nc2n1 | -4.78%
O=C(Nc1ccc2nccnc2c1)N1CCCCC1 | 0.51%
Clc1ccc(CNCCc2ccc3c(c2)OCO3)cc1 | 2.23%
CCCn1c(NCc2ccc(Cl)cc2)nc2ccccc21 | -0.828%
CC(C)C(NC(=O)c1ccc(C23CC4CC(CC(C4)C2)C3)cc1)C(=O)Nc1ccccn1 (stereo not shown) | 3.34%
CCOC(=O)c1c(C)c(C(=O)NCc2ccc3c(c2)OCO3)c(C)n1Cc1ccccc1 | 0.0579%
Cc1ccccc1CN(C)CCc1ccccn1 | 2.1%
Cc1ccccc1CNC(=O)Cn1cnc(S(=O)(=O)N2CCCC2)c1 | 0.0575%
Cc1ccc2oc3c(c(=O)c2c1)C(c1cccc(O)c1)N(c1ccccn1)C3=O (stereo not shown) | 8.3%
CN(CC(=O)N1CCC(C(N)=O)CC1)S(=O)(=O)c1ccc(F)cc1 | 4.44%
O=C(Cc1ccccc1)Nc1ccc(S(=O)(=O)Nc2cccc(Cl)c2Cl)cc1 | -4.35%
COc1ccc(/C=c2\oc3cccc4c(OC)ccc(c2=O)c34)cc1OC | -3.78%
Cc1cccc(OCC(=O)Nc2ccc(CN3CCOCC3)cc2)c1 | 0.189%
CC1=C(C(=O)Nc2cccc(C)n2)C(c2ccc(Cl)cc2Cl)C2=C(O)CC(C)(C)CC2=N1 (stereo not shown) | -4.48%
CCCN(CCC)C(=O)Cn1c(SCc2ccccc2F)nc2ccncc21 | -6.24%
